The record followed here is PMC9911399, “Two distinct binding modes provide the RNA-binding protein RbFox with extraordinary sequence specificity”.

Residue numbers refer to the chain shown, from its start. Some of the results follow.

Sequences and labels used below:
T1: RBFOX1 RRM (Homo sapiens, UniProt Q9NWB1 109-208)
T1 sequence: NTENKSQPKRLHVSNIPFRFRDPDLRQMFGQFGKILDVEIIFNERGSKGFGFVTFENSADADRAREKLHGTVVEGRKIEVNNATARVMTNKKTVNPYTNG

B1: ACGAAUC (DNA:RNA)
RNA: GGGAGACCGGAAUUCAGAUUGUCCACGAAUCUUAAAUCCCGUCGUAGCCACCA
DNA 1: CAATCTGAATTCCGGTCTCCC
DNA 2: TGGTGGCTACGACGGGATT
B2: AAGGGGC (DNA:RNA)
RNA: B1 RNA with C26A, A28G, A29G, U30G
DNA 1: CAATCTGAATTCCGGTCTCCC
DNA 2: TGGTGGCTACGACGGGATT
B3: GGAUAAG (DNA:RNA)
RNA: B1 RNA with A25G, C26G, G27A, A28U, U30A, C31G
DNA 1: CAATCTGAATTCCGGTCTCCC
DNA 2: TGGTGGCTACGACGGGATT
B4: UCGUGAU (DNA:RNA)
RNA: B1 RNA with A25U, A28U, A29G, U30A, C31U
DNA 1: CAATCTGAATTCCGGTCTCCC
DNA 2: TGGTGGCTACGACGGGATT
B5: CGACUCA (DNA:RNA)
RNA: GGGAGACCGGAAUUCAGAUUGUCCCGACUCAUUAAAUCCCGUCGUAGCCACCA
DNA 1: CAATCTGAATTCCGGTCTCCC
DNA 2: TGGTGGCTACGACGGGATT
B6: CAGGGCC (DNA:RNA)
RNA: B1 RNA with A25C, C26A, A28G, A29G, U30C
DNA 1: CAATCTGAATTCCGGTCTCCC
DNA 2: TGGTGGCTACGACGGGATT
B7: AAUCCUA (DNA:RNA)
RNA: B1 RNA with C26A, G27U, A28C, A29C, C31A
DNA 1: CAATCTGAATTCCGGTCTCCC
DNA 2: TGGTGGCTACGACGGGATT
B8: GUUUUGU (DNA:RNA)
RNA: B5 RNA with C25G, G26U, A27U, C28U, C30G, A31U
DNA 1: CAATCTGAATTCCGGTCTCCC
DNA 2: TGGTGGCTACGACGGGATT
B9: CAAUUUG (DNA:RNA)
RNA: B5 RNA with G26A, C28U, C30U, A31G
DNA 1: CAATCTGAATTCCGGTCTCCC
DNA 2: TGGTGGCTACGACGGGATT
B10: AUACACG (DNA:RNA)
RNA: B5 RNA with C25A, G26U, U29A, A31G
DNA 1: CAATCTGAATTCCGGTCTCCC
DNA 2: TGGTGGCTACGACGGGATT
B11: UUGACGC (DNA:RNA)
RNA: B1 RNA with A25U, C26U, A29C, U30G
DNA 1: CAATCTGAATTCCGGTCTCCC
DNA 2: TGGTGGCTACGACGGGATT
B12: AAGAGUU (DNA:RNA)
RNA: B1 RNA with C26A, A29G, C31U
DNA 1: CAATCTGAATTCCGGTCTCCC
DNA 2: TGGTGGCTACGACGGGATT
B13: GUAAGGC (DNA:RNA)
RNA: B1 RNA with A25G, C26U, G27A, A29G, U30G
DNA 1: CAATCTGAATTCCGGTCTCCC
DNA 2: TGGTGGCTACGACGGGATT
B14: AUGUCGC (DNA:RNA)
RNA: B1 RNA with C26U, A28U, A29C, U30G
DNA 1: CAATCTGAATTCCGGTCTCCC
DNA 2: TGGTGGCTACGACGGGATT
B15: CCGCAUC (DNA:RNA)
RNA: B1 RNA with A25C, A28C
DNA 1: CAATCTGAATTCCGGTCTCCC
DNA 2: TGGTGGCTACGACGGGATT
B16: GACGAAA (DNA:RNA)
RNA: B1 RNA with A25G, C26A, G27C, A28G, U30A, C31A
DNA 1: CAATCTGAATTCCGGTCTCCC
DNA 2: TGGTGGCTACGACGGGATT
B17: CGCAGGG (DNA:RNA)
RNA: B5 RNA with A27C, C28A, U29G, C30G, A31G
DNA 1: CAATCTGAATTCCGGTCTCCC
DNA 2: TGGTGGCTACGACGGGATT
B18: CCACCCG (DNA:RNA)
RNA: B5 RNA with G26C, U29C, A31G
DNA 1: CAATCTGAATTCCGGTCTCCC
DNA 2: TGGTGGCTACGACGGGATT
B19: UCAUUCA (DNA:RNA)
RNA: B5 RNA with C25U, G26C, C28U
DNA 1: CAATCTGAATTCCGGTCTCCC
DNA 2: TGGTGGCTACGACGGGATT
B20: CACCGGC (DNA:RNA)
RNA: B5 RNA with G26A, A27C, U29G, C30G, A31C
DNA 1: CAATCTGAATTCCGGTCTCCC
DNA 2: TGGTGGCTACGACGGGATT
B21: CCAUUUU (DNA:RNA)
RNA: B5 RNA with G26C, C28U, C30U, A31U
DNA 1: CAATCTGAATTCCGGTCTCCC
DNA 2: TGGTGGCTACGACGGGATT
B22: ACGGGUU (DNA:RNA)
RNA: B1 RNA with A28G, A29G, C31U
DNA 1: CAATCTGAATTCCGGTCTCCC
DNA 2: TGGTGGCTACGACGGGATT
B23: CUGGCUA (DNA:RNA)
RNA: B1 RNA with A25C, C26U, A28G, A29C, C31A
DNA 1: CAATCTGAATTCCGGTCTCCC
DNA 2: TGGTGGCTACGACGGGATT
B24: GAGCUUU (DNA:RNA)
RNA: B1 RNA with A25G, C26A, A28C, A29U, C31U
DNA 1: CAATCTGAATTCCGGTCTCCC
DNA 2: TGGTGGCTACGACGGGATT
B25: CCACGUU (DNA:RNA)
RNA: B5 RNA with G26C, U29G, C30U, A31U
DNA 1: CAATCTGAATTCCGGTCTCCC
DNA 2: TGGTGGCTACGACGGGATT
B26: CCCCGUU (DNA:RNA)
RNA: B1 RNA with A25C, G27C, A28C, A29G, C31U
DNA 1: CAATCTGAATTCCGGTCTCCC
DNA 2: TGGTGGCTACGACGGGATT
B27: GAUUCCG (DNA:RNA)
RNA: B5 RNA with C25G, G26A, A27U, C28U, U29C, A31G
DNA 1: CAATCTGAATTCCGGTCTCCC
DNA 2: TGGTGGCTACGACGGGATT
B28: AGAACUC (DNA:RNA)
RNA: B1 RNA with C26G, G27A, A29C
DNA 1: CAATCTGAATTCCGGTCTCCC
DNA 2: TGGTGGCTACGACGGGATT
B29: CAAUAUG (DNA:RNA)
RNA: B1 RNA with A25C, C26A, G27A, A28U, C31G
DNA 1: CAATCTGAATTCCGGTCTCCC
DNA 2: TGGTGGCTACGACGGGATT
B30: AUAAGCA (DNA:RNA)
RNA: B5 RNA with C25A, G26U, C28A, U29G
DNA 1: CAATCTGAATTCCGGTCTCCC
DNA 2: TGGTGGCTACGACGGGATT
B31: AGUUUAG (DNA:RNA)
RNA: B5 RNA with C25A, A27U, C28U, C30A, A31G
DNA 1: CAATCTGAATTCCGGTCTCCC
DNA 2: TGGTGGCTACGACGGGATT

The target of the assay is T1, RBFOX1 RRM. As to the kind of experiment: EMSA; HiTS-Eq, 1 nM pool, 10 min; buffer printed only for the single-RNA assays: 10 mM Tris pH 7.5, 150 mM NaCl, 3.4 mM EDTA, 0.001% NP-40, 30 C. As to conditions: tags: His6 N-terminal (pET28a); label: 5' 32P. In short, it runs like this:
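Purified wild-type or mutant RbFox RRM at increasing concentrations was equilibrated with 1 nM of 5′-radiolabelled RNA carrying 7 randomized nucleotides for 10 min in 50 µL. Unbound RNA was separated by 8% native PAGE and sequenced. Relative association constants came from read-count changes of each RNA species compared with the control reaction, normalised to the cognate motif.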
Regarding B1, the binding signal is 0.00464 KA relative to UGCAUGU.

For the molecule B2, the binding signal was 0.0143 KA relative to UGCAUGU.

For B3, the binding signal was 0.00929 KA relative to UGCAUGU.

As to B4, the binding signal is 0.00903 KA relative to UGCAUGU.

B5: the binding signal is 0.00407 KA relative to UGCAUGU.

B6: the binding signal was 0.0157 KA relative to UGCAUGU.

Turning to B7, the binding signal was 0.000556 KA relative to UGCAUGU.

B8: the binding signal is 0.0195 KA relative to UGCAUGU.

For B9, the binding signal is 0.00892 KA relative to UGCAUGU.

Turning to B10, the binding signal was 0.00178 KA relative to UGCAUGU.

In the case of B11, the binding signal was 0.011 KA relative to UGCAUGU.

Take B12: the binding signal is 0.0092 KA relative to UGCAUGU.

In the case of B13, the binding signal was 0.00453 KA relative to UGCAUGU.

Consider B14, for which the binding signal was 0.0121 KA relative to UGCAUGU.

In the case of B15, the binding signal is 0.0121 KA relative to UGCAUGU.

On to B16, for which the binding signal was 0.00739 KA relative to UGCAUGU.

For B17, the binding signal was 0.00445 KA relative to UGCAUGU.

Regarding B18, the binding signal was 0.00527 KA relative to UGCAUGU.

With B19, the binding signal was 0.00233 KA relative to UGCAUGU.

As to B20, the binding signal was 0.00645 KA relative to UGCAUGU.

On to B21, for which the binding signal was 0.00144 KA relative to UGCAUGU.

For the molecule B22, the binding signal is 0.0214 KA relative to UGCAUGU.

On to B23, for which the binding signal was 0.0161 KA relative to UGCAUGU.

Take B24: the binding signal was 0.0151 KA relative to UGCAUGU.

On to B25, for which the binding signal was 0.00237 KA relative to UGCAUGU.

As for B26, the binding signal was 0.00507 KA relative to UGCAUGU.

Regarding B27, the binding signal was 0.0143 KA relative to UGCAUGU.

As to B28, the binding signal was 0.0032 KA relative to UGCAUGU.

For B29, the binding signal was 0.00514 KA relative to UGCAUGU.

As for B30, the binding signal was 0.00563 KA relative to UGCAUGU.

B31: the binding signal was 0.00997 KA relative to UGCAUGU.
